Test results: patent publication US20090143279A1 (priority 2007, published 2009)

system: cellular ATP levels; details: not given

| Compound | ATP |
| --- | --- |
| COP(=S)(OC)Oc1ccc([N+](=O)[O-])cc1 [methyl parathione] | 0.145 |
| CC1(C)CC[C@]2(C(=O)O)CC[C@]3(C)C(=CC[C@@H]4[C@@]5(C)CC[C@H](O)[C@@](C)(CO)[C@@H]5CC[C@]43C)[C@@H]2C1 [hederagenin] | 0.064 |

same assay, conditions: 20 μM; composite Z-score vs DMSO

| Compound | ATP |
| --- | --- |
| COc1ccc([C@@H]2CC(=O)c3c(O)cc(O[C@@H]4O[C@H](CO[C@@H]5O[C@@H](C)[C@H](O)[C@@H](O)[C@H]5O)[C@@H](O)[C@H](O)[C@H]4O)cc3O2)cc1O [hesperidin] | 0.769 |
| ClC1=C(Cl)C2(Cl)C3C4CC(C5OC45)C3C1(Cl)C2(Cl)Cl (stereo not shown) [endrin] | 0.305 |
| CC(=O)OCC(COC(C)=O)OC(C)=O [triacetin] | −0.008 |
| CC[N+](C)(C)c1cccc(O)c1 [edrophonium] | 0.134 |

same assay, conditions: 24.06 μM; composite Z-score vs DMSO

| Compound | ATP |
| --- | --- |
| CC[N+](C)(C)c1cccc(O)c1 [edrophonium] | 1.406 |

same assay, conditions: Conc 20 μM; normalized score vs mock-treated (DMSO) wells

| Compound | ATP (composite Z-score) |
| --- | --- |
| C=C(C)C1Cc2c(ccc(C(=O)O)c2O)O1 (stereo not shown) [tubaic acid] | 0.416 |
| C[C@]12CCC(=O)C=C1C=C[C@@H]1[C@@H]2CC[C@@]2(C)[C@H]1CC[C@@]2(O)CCC(=O)O [canrenoic acid] | −0.434 |
| CCOc1ccc(C(=O)c2ccc(O)c(O)c2O)cc1 [2,3,4-trihydroxy-4′-ethoxybenzophenone] | 1.562 |
| Oc1nc2cc(Cl)c(Cl)cc2nc1O [2,3-dihydroxy-6,7-dichloroquinoxaline] | 0.984 |
| CC(C)(O)CC[C@@H](O)[C@](C)(O)[C@H]1CC[C@@]2(O)C3=CC(=O)[C@@H]4C[C@@H](O)[C@@H](O)C[C@]4(C)[C@H]3CC[C@]12C [crustecdysone] | 0.693 |
| CC(=O)Oc1cccc(C(=O)O)c1OC(C)=O [dipyrocetyl] | 1.278 |
| CC(C)c1ccc2c(c1)CCC1[C@](C)(CN)CCC[C@]21C.O=S(=O)(O)O (stereo partly shown) [18-aminoabieta-8,11,13-triene sulfate] | 0.999 |

same assay, conditions: composite Z-score vs DMSO wells; Conc 20 μM

| Compound | ATP |
| --- | --- |
| COc1ccc(-c2cc(=O)c3c(O)cc(O[C@@H]4O[C@H](CO[C@@H]5O[C@@H](C)[C@H](O)[C@@H](O)[C@H]5O)[C@@H](O)[C@H](O)[C@H]4O)cc3o2)cc1O [diosmin] | 0.452 |
| O=C(O)c1ccc(S(=O)(=O)N(Cl)Cl)cc1 [halazone] | −0.116 |
| CCc1nc(N)nc(N)c1-c1ccc(Cl)cc1 [pyrimethamine] | 0.449 |
| CCOC(=O)CCCCCCCCCCCCC1C=CCC1 (stereo not shown) [chaulmoogric acid, ethyl ester] | −0.123 |

same assay, conditions: composite Z-score vs DMSO; Conc 8.94 μM

| Compound | ATP |
| --- | --- |
| CN[C@@H]1[C@@H](O)[C@@H](O[C@@H]2[C@@H](O)[C@H](O[C@H]3OC(CN)=CC[C@H]3N)[C@@H](N)C[C@H]2N)OC[C@]1(C)O [sisomicin] | 0.411 |

same assay, conditions: composite Z-score vs DMSO; Conc 10.62 μM

| Compound | ATP |
| --- | --- |
| O=C(c1ccccc1)c1ccc2n1CCC2C(=O)O (stereo not shown) [ketorolac] | −0.629 |

same assay, conditions: composite Z-score vs DMSO; Conc 20 μM

| Compound | ATP |
| --- | --- |
| CC[C@@]1(O)C[C@H](O)c2c(cc3c(c2O)C(=O)c2c(O)ccc(O)c2C3=O)[C@H]1C(=O)OC [rutilantinone] | −2.936 |
| CC(=O)OCC(=O)[C@@]1(O)CCC2C3CC[C@@H]4C[C@H](OC(C)=O)CC[C@]4(C)C3C(=O)C[C@@]21C (stereo partly shown) [tetrahydrocortisone-3,21-diacetate] | 0.067 |
| C[C@H](N)[C@H](O)c1cccc(O)c1 [metaraminol] | 1.865 |
| COC1=CC(=O)C(O)=C/C1=C\C=C\c1ccccc1 [obtusaquinone] | −8.654 |
| O=C(c1ccccc1)c1ccc2n1CCC2C(=O)O (stereo not shown) [ketorolac] | −0.259 |
| C[C@H]1C(=O)CC[C@@H]2[C@]1(C)CC[C@H]1[C@@]2(C)CC[C@@]2(C)[C@@H]3CC(C)(C)CC[C@]3(C)CC[C@]12C [friedelin] | 0.462 |
| CCN1CCN(C(=O)N[C@@H](C(=O)N[C@@H]2C(=O)N3[C@@H]2SC(C)(C)[C@@H]3C(=O)O)c2ccccc2)C(=O)C1=O [piperacillin] | 0.634 |
| COc1cc(O)ccc1C(C)=O [isopeonol] | 2.649 |
| COC(=O)C1(C)CCCC2(C)c3ccc(C(C)C)cc3C(=O)CC12 (stereo not shown) [7-oxocallitrisic acid, methyl ester] | −0.302 |
| CC1(O)CC2C(CC1O)C2(C)C (stereo not shown) [3,4-dihydroxycarane] | −0.280 |
| N[C@H]1C(O)O[C@H](CO)[C@H](O)[C@@H]1O[C@@H]1O[C@H](C(=O)O)[C@@H](O)[C@H](O)[C@H]1O (stereo partly shown) [chondrosine] | 0.150 |
| COc1cc2c3cc1Oc1c(OC)c(OC)cc4c1[C@@H](Cc1ccc(O)c(c1)Oc1ccc(cc1)C[C@@H]3N(C)CC2)N(C)CC4 [berbamine] | 0.168 |

same assay, conditions: composite Z-score vs mock-treated (DMSO) wells; Conc 20 μM

| Compound | ATP |
| --- | --- |
| CC1(C)OC(=O)C=CC2(C)C1CC(O)C1(C)C2CCC2(C)C(c3ccoc3)OC(=O)C3OC321 (stereo not shown) [obacunol] | 1.116 |
| CC=Cc1ccc2c(c1)OCO2 [isosafrole] | 0.369 |
| khayanthone | 0.345 |
| COc1ccc2c(c1OC)OC[C@@H](c1ccc(OC)c(OC)c1OC)C2 [duartin, dimethyl ether] | 0.049 |
| COC(=O)[C@@H]1OC(=O)C2OC23[C@@]1(C)CCC1[C@@]2(C)CCC(=O)C(C)(C)C2C[C@@H](OC(C)=O)[C@]13C (stereo partly shown) [dihydrogedunic acid, methyl ester] | 0.122 |
| CC(C)=CCCC1(C)C=Cc2c(O)c3c(c(CC=C(C)C)c2O1)OC12C(=CC4CC1C(C)(C)OC2(C/C=C(/C)C(=O)O)C4O)C3=O (stereo not shown) [dihydrogambogic acid] | −8.298 |
| CC(=O)O[C@H]1C[C@@H](OC(C)=O)C(C)(C)[C@@H]2C[C@@H](OC(C)=O)[C@]3(C)[C@H](CC[C@@]4(C)[C@H](c5ccoc5)OC(=O)[C@H]5O[C@@]534)[C@@]12C [khivorin] | −0.294 |
| COC(=O)[C@@]1(C)CCC[C@]2(C)c3ccc(O)c(C(C)C)c3CCC12 (stereo partly shown) [totarol-19-carboxylic acid, methyl ester] | 2.434 |
| COc1cc2ccc(=O)oc2c(OC)c1OC [fraxidin methyl ether] | 0.407 |
| COc1cc2ccc(=O)oc2c2ccoc12 [sphondin] | 0.064 |

same assay, conditions: normalized composite Z-score vs mock-treated (DMSO) wells; Conc 20 μM

| Compound | ATP |
| --- | --- |
| CC(=O)O[C@@H]1CC2C(C)(C)C(=O)CC[C@]2(C)C2CC[C@]3(C)C(=CC(=O)O[C@H]3c3ccoc3)[C@@]21C (stereo partly shown) [dihydrodeoxygedunin] | 1.697 |
| CC1(C)C(=O)CC[C@@]2(C)C1C[C@@H](O)[C@@]1(C)C3=CC(=O)O[C@@H](c4ccoc4)[C@]3(C)CCC21 (stereo partly shown) [dihydro-7-desacetyldeoxygedunin] | 1.060 |
| CC[C@H](CC[C@@H](C)[C@H]1CC[C@H]2[C@@H]3CC=C4C[C@@H](OC(C)=O)CC[C@]4(C)[C@H]3CC[C@]12C)C(C)C [sitosteryl acetate] | 0.613 |
| COc1cc(OC)c2c(c1)O[C@H](c1ccc(OC)c(OC)c1)[C@@H](O)C2 [catechin tetramethylether] | 0.310 |
| CC(=O)O[C@H]1C[C@@H](OC(C)=O)C(C)(C)C2CC(=O)[C@]3(C)C(CC[C@@]4(C)[C@H](C(=O)O)OC(=O)C5OC543)[C@]21C (stereo partly shown) [deacetoxy(7)-7-oxokhivorinic acid] | 0.363 |
| COc1c(-c2coc3cc4c(cc3c2=O)CC(O)C(C)(C)O4)ccc2c1C=CC(C)(C)O2 (stereo not shown) [mundulone, reference compound] | −4.544 |
| COc1ccc2c(c1)OCC(Cc1ccc(OC)c(OC)c1)C2O (stereo not shown) [3-deshydroxysappanol trimethyl ether, reference compound] | −0.268 |
| COc1ccc(C(=O)c2ccc(O)cc2)c(O)c1O [2,3,4′-trihydroxy-4-methoxybenzophenone] | −0.035 |
| CC12CCCC(O)(C1)C1CC(C)(C)C1CC2 (stereo not drawn) [beta-caryophyllene alcohol] | −0.243 |
| C=C1CCC=C(C)C(=O)CC2C(C)CC12 (stereo not shown) [15-norcaryophyllen-3-one] | 0.833 |
